{
  "source": "PubChem BioAssay AID894",
  "about": "(National Center for Advancing Translational Sciences (NCATS), 2007)",
  "note": "The campaign covered roughly 150,000 compounds. About 6,500 (4.3%) were called active. The inconclusive results got no clear call from the source; some entries with a clear call stand among them for comparison. Calls follow the shape of the dose curve; as a rule, active = well fitted inhibition curve with a large enough effect (not every such curve was filed as active); inconclusive = small, poorly fitted or top-dose-only effect, or another doubt; inactive = no such curve, though single readings can be large or run the other way. Potencies of inconclusive entries are left out as doubtful fits. % is scaled to controls: 0 for no effect and ±100 for the full control effect; potency is read from the fitted curve at half-maximal effect; tags tell the direction and shape of the fitted curve.",
  "data": [
    {"target": "15-hydroxyprostaglandin dehydrogenase [NAD(+)] (Homo sapiens) (UniProt P15428)", "sequence (P15428 whole entry, looked up)": "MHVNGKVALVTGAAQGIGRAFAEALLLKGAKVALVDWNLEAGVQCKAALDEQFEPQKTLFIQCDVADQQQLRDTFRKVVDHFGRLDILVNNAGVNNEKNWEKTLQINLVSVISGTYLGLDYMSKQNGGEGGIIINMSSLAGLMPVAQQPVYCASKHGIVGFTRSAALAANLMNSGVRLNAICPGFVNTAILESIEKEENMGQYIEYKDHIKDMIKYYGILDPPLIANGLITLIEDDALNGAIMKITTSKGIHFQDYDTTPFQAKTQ", "test": "qHTS Assay for Inhibitors of HPGD (15-Hydroxyprostaglandin Dehydrogenase)", "details": "purified HPGD, NADH fluorescence kinetic, PGE2 substrate; activity change, negative = inhibition: hits give low values", "summary_of_the_method": "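NADH formation kinetics: reaction with 30 uM PGE2 and 1 mM NAD+ (final), 20 nM enzyme, Tris-HCl pH 8 with Tween 20, after 15 min compound preincubation at room temperature. Fluorescence change, last versus first of five reads.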", "values": [
      {"molecule": "CCOc1ccccc1-c1nc2c([nH]1)c(=O)n(C)c(=O)n2C", "Potency": "inconclusive [inhibitor, partial curve]"},
      {"molecule": "COc1ccccc1-c1nnc(-c2ccc(N3CCOCC3)cc2)o1", "Potency": "inconclusive [inhibitor, partial curve]"},
      {"molecule": "COC(=O)N1CCC2(CCCN(c3ccccn3)C2)CC1", "Potency": "inconclusive [inhibitor, partial curve]"},
      {"molecule": "CCS(=O)(=O)N1CCC(C(=O)NCCc2ccc(C)cc2)CC1", "Potency": "inconclusive [inhibitor, single point]"},
      {"molecule": "c1ccc2c(c1)oc1c(Nc3ccc4c(c3)OCO4)ncnc12", "Potency": "inconclusive [inhibitor, partial curve, poor fit]"},
      {"molecule": "COc1ccc(C(=O)NNC(=O)c2ccccn2)cc1", "Potency": "inconclusive [inhibitor, partial curve]"},
      {"molecule": "COc1cc(/C=N/NC(N)=S)ccc1OCC(=O)Nc1ccc(C)c(C)c1", "Potency": "inconclusive [inhibitor, partial curve]"},
      {"molecule": "CCOc1cc2[nH]c(=O)n(CCCCC(=O)NCc3ccco3)c(=O)c2cc1OCC", "Potency": "inconclusive [inhibitor, partial curve]"},
      {"molecule": "N#Cc1c(Cl)c(Cl)c2nnc(-c3ccc(Br)cc3)n2c1Cl", "Potency": "active: 12.6 µM"},
      {"molecule": "COC(=O)c1sccc1NC(=S)N1CCN(c2cccc(C)c2C)CC1", "activity change, negative = inhibition": "inactive: -6.91%"},
      {"molecule": "Cc1cccc(NC(=S)N(CCN(C)C)Cc2cc3cccc(C)c3[nH]c2=O)c1", "activity change, negative = inhibition": "inactive: -2.75%"},
      {"molecule": "COc1cc(-c2coc3cc(OCc4ccccc4)c(OC)c(O)c3c2=O)cc(O)c1OC", "Potency": "inconclusive [inhibitor, partial curve]"},
      {"molecule": "Cc1ccc(O)c(CC(C)C)n1", "Potency": "inconclusive [inhibitor, partial curve]"},
      {"molecule": "COc1ccc(C(=O)c2sc3nc(-c4ccccc4)ccc3c2N)cc1", "activity change, negative = inhibition": "inactive: -13.8%"},
      {"molecule": "Cc1ccc(CN2C(=O)C(C)(C)Oc3ccc(C(=O)N4CCCCC4)cc32)cc1", "Potency": "active: 31.6 µM"},
      {"molecule": "Cc1ccccc1NC(=S)NC(=O)CCc1ccccc1", "activity change, negative = inhibition": "inactive: -8.08%"},
      {"molecule": "CCN(CC)S(=O)(=O)c1ccc(NC(=O)CSc2cccc[n+]2[O-])cc1", "activity change, negative = inhibition": "inactive: -11.8%"},
      {"molecule": "COc1ccc2c(Cl)c(C(=O)N/N=C/c3ccc4c(c3)OCO4)sc2c1", "Potency": "inconclusive [inhibitor, partial curve]"},
      {"molecule": "Cc1cc(/C=C(\\C#N)C(=O)Nc2ccc(F)cc2)c(C)n1-c1ccc(N2CCOCC2)c([N+](=O)[O-])c1", "activity change, negative = inhibition": "inactive: -16%"}
    ]}
  ]
}
